# Laboratory results from PubChem BioAssay AID720708 (National Center for Advancing Translational Sciences (NCATS), 2013).
# About 660 (0.18%) of roughly 360,000 compounds were called active. Inconclusive means that the source gave no clear call. Such entries were picked first, then a sample of the others. Calls follow the shape of the dose curve; as a rule, active = well fitted inhibition curve with a large enough effect; inconclusive = small, poorly fitted or top-dose-only effect; inactive = no such curve, though single readings can be large or run the other way. Potencies of inconclusive entries are left out as doubtful fits.
# Biological target: Rap guanine nucleotide exchange factor 4 (Homo sapiens) (UniProt Q8WZA2)
# Experiment: qHTS for Antagonist of cAMP-regulated guanine nucleotide exchange factor 2 (EPAC2): primary screen; also: nearly all actives have a fitted effect of over 45% in size
# Settings: EPAC2 GEF exchange of Rap1B-BODIPY-GDP, fluorescence; series mostly up to 114 µM
# Potency is read from the fitted curve at half-maximal effect; tags tell the direction and shape of the fitted curve.
# UniProt Q8WZA2, sequence (Q8WZA2 whole entry, looked up): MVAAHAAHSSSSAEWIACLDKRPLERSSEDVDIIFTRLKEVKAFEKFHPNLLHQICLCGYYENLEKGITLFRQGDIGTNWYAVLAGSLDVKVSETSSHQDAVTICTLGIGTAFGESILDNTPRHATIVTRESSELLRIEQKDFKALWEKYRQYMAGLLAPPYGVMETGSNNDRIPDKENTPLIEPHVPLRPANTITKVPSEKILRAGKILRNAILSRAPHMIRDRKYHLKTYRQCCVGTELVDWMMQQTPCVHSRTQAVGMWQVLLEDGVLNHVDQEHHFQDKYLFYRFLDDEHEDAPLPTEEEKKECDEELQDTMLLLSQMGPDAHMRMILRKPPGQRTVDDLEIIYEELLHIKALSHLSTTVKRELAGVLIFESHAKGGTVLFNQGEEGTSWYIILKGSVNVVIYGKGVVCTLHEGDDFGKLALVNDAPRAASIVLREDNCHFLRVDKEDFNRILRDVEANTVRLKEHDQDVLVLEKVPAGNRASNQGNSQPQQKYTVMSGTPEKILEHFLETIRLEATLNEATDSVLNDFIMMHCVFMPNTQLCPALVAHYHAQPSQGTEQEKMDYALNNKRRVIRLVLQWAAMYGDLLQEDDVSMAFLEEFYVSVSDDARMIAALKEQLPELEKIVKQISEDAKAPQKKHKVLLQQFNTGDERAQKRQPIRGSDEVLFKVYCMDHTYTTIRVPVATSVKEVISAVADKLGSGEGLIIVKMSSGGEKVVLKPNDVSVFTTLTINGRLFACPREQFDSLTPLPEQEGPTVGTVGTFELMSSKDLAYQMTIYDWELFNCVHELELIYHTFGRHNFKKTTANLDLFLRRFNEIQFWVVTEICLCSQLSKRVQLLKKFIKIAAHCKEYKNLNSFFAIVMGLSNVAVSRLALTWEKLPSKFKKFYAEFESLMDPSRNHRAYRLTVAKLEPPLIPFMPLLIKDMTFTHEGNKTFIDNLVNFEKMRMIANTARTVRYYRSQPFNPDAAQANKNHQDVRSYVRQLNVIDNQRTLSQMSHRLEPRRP
row,SMILES,Potency
1,O=c1oc2ccccc2n1Cc1ccccc1Cl,"inconclusive [inhibitor, full curve]"
2,CCCCCCCCN1C(=O)[C@H](CC(=O)N2CCN(C(=O)c3ccco3)CC2)C[C@@]2(C(=O)OCC)CCCC=C12,"inconclusive [inhibitor, partial curve, poor fit]"
3,CCOC(=O)CC/C(C)=N\N=C1\SC(CC(=O)O)C(=O)N1c1ccccc1 (stereo not drawn),inactive
4,CCOC(=O)N1CCC(NC(=O)CCN2C(=O)COc3ccccc32)CC1,inactive
5,CC1(C)CC(=O)c2sc(N3CCCCC3)nc2C1,"inconclusive [inhibitor, single point]"
6,CN=C(c1ccc(C)cc1)n1c(=S)nc(-c2ccc(C)cc2)n(C)c1=S,"inconclusive [inhibitor, partial curve]"
7,Cc1ccc(C)c(Cn2nc(-c3cc(C)ccc3C)ccc2=O)c1,"inconclusive [inhibitor, partial curve]"
8,O=c1c(Cl)c(Cl)cnn1Cc1nnc(-c2ccc(Cl)cc2)o1,"inconclusive [inhibitor, full curve]"
9,CSc1ccccc1NC(=O)c1cnc2n(c1=O)CCS2,"inconclusive [inhibitor, full curve, poor fit]"
10,COc1ccc(CNc2cccnc2Cl)cc1,inactive
11,Cn1cc(-c2ccccc2C(N)=O)c(=O)c2cc(Cl)ccc21,inactive
12,CSCCC(NC(=O)COc1ccccc1)C(=O)N(C)Cc1c(F)cccc1Cl (stereo not drawn),"inconclusive [inhibitor, partial curve]"
13,COc1cc(/C=N/NC(=O)C2CCN(CC(O)COCc3ccccc3)CC2)ccc1O (stereo not drawn),inactive
14,CC(C)(C)n1nc2c(c1NC(=O)c1ccc(S(=O)(=O)N3CCCCC3)cc1)CS(=O)C2 (stereo not drawn),inactive
15,CC1(C)CC(=O)C(=C2SCCCS2)C(=O)C1,inactive
16,Cc1ccc(S(=O)(=O)NC2=C(N3CCN(Cc4ccccc4)CC3)C(=O)c3ccccc3C2=O)cc1,inactive
17,COn1c(-c2ccc(Cl)cc2Cl)nc2ncccc21,"inconclusive [inhibitor, full curve]"
18,COc1ccccc1Cn1c(C(C)C)nc2ccccc21,"inconclusive [inhibitor, partial curve]"
19,COc1ccc(NC(=O)CN(C)CC(=O)Nc2cccc(F)c2)cc1Cl,"inconclusive [inhibitor, single point]"
20,CCN(C(=O)c1cc2c(C)nc3ccccc3c2o1)c1cc(Cl)ccc1OC,"inconclusive [inhibitor, partial curve]"
21,Cc1cc(C)c(C)c(S(=O)(=O)Nc2ccccc2C(=O)O)c1C,"inconclusive [inhibitor, partial curve]"
22,COc1ccccc1C(=O)NC1CCCc2ccccc21 (stereo not drawn),"inconclusive [inhibitor, partial curve, poor fit]"
23,C/C=C(\C)C(=O)NCCN1C2=NC[C@H](Cc3ccccc3)N2C[C@@H]1Cc1ccc(OC)cc1,inactive
24,COc1ccc(-c2nn(-c3ccccc3)cc2/C=N/Nc2ccc(S(N)(=O)=O)cc2[N+](=O)[O-])cc1OC,"inconclusive [inhibitor, single point]"
25,COc1ccc(Cc2nc3ccc(C(=O)N4CCCN(C=O)CC4)cc3o2)cc1,inactive

row,SMILES,Potency
1,CC1(OC(=O)C2CCCC2)C(=O)C=C2C=C(c3ccsc3)N(Cc3ccco3)C=C2C1=O (stereo not drawn),inactive
2,Cc1ccc(OCCCn2ccnc2)cc1C,"inconclusive [inhibitor, partial curve]"
3,Cc1ccccc1C(=O)Nc1cc(-c2cc(C(C)(C)C)oc2C)nn1C,"inconclusive [inhibitor, partial curve]"
4,NC(=O)CN1CCN(S(=O)(=O)c2ccc(Br)cc2)CC1,inactive
5,COc1cccc(/C=C2\SC(=S)NC2=O)c1OS(=O)(=O)c1ccc(NC(C)=O)cc1,inactive
6,CCOC(=O)C1=C(C)OC(N)=C(C#N)C1c1ccc(OC)c(CSc2ccccn2)c1 (stereo not drawn),"inconclusive [inhibitor, partial curve]"
7,CCc1nc2c(OCCC3CCCCC3)cccn2c1N(C)C(=O)c1ccc(C)cc1,"inconclusive [inhibitor, partial curve]"
8,COCCOC(=O)C1=C(C)NC(C)=C(C(=O)OC(C)C)C1c1cccc([N+](=O)[O-])c1 (stereo not drawn),"inconclusive [inhibitor, partial curve]"
9,CCOc1cc([N+](=O)[O-])cc(/C=N/NC(=O)c2c(-c3ccccc3)noc2C)c1O,inactive
10,N#Cc1nnn2c1nc(N)c1c(Cl)cccc12,inactive
11,Cc1ccc(S(=O)(=O)N2[C@H](CC(=O)c3ccc(Cl)c(Cl)c3)OC[C@@H]2C(C)C)cc1,inactive
12,CCCC(C)C(=O)Nc1ccc(S(=O)(=O)Nc2nccs2)cc1 (stereo not drawn),"inconclusive [inhibitor, partial curve, poor fit]"
13,O=c1c2ccccc2ncn1Cc1ccc(Cl)cc1,inactive
14,COc1ccc2oc(C(=O)N(C)CCOc3ccccc3)c(C)c2c1,inactive
15,O=C(CC1c2cc(F)ccc2C=C(c2ccsc2)N1c1ccc(C#CCCO)cc1)c1ccco1 (stereo not drawn),"inconclusive [inhibitor, full curve]"
16,CC1(C)CC2CC(C)(CN2C(=O)COC(=O)c2ccccc2C(F)(F)F)C1 (stereo not drawn),"inconclusive [inhibitor, partial curve]"
17,CCSc1nc2sc3c(c2c(=O)n1CC)CCC3,"inconclusive [inhibitor, partial curve]"
18,COc1cc(OC)c(N(C)S(=O)(=O)c2cccc(C(=O)OCC(=O)NCc3ccco3)c2)cc1Cl,"inconclusive [inhibitor, full curve]"
19,NC(=O)c1ccsc1NC(=O)COC(=O)c1ccc([N+](=O)[O-])o1,"inconclusive [inhibitor, full curve]"
20,Cc1ccc(S(=O)(=O)C2(C(=O)Nc3ccc(Br)cc3)CC2)cc1,"inconclusive [inhibitor, partial curve]"
21,Cc1c(/C=C/C(=O)c2cccs2)cnn1C,inactive
22,Cc1ccccc1-n1c(-c2ccncc2)n[nH]c1=S,inactive
23,Cc1cccc(-c2nc(C#N)c(N3CCCCC3)o2)c1,inactive
24,COC(=O)c1c(NC(=O)C2CC(=O)NN2Cc2ccccc2)sc(C)c1C (stereo not drawn),"inconclusive [inhibitor, single point]"
25,COc1ccc(C(=O)N/N=C\c2coc3ccc(Cl)cc3c2=O)cc1,"inconclusive [inhibitor, partial curve]"

row,SMILES,Potency
1,CCOC(=O)c1sc(N)c(C(=O)OCC)c1C,inactive
2,CCC(CC)NC(=O)c1ccccc1Oc1ccccc1,"inconclusive [inhibitor, partial curve]"
3,COCCCNC(=O)c1ccc(N(C)S(C)(=O)=O)cc1,inactive
4,COC(=O)c1cc(C)nc2c1C(=O)C(=O)C=C2N1CCOCC1,"inconclusive [inhibitor, full curve]"
5,O=C(CN1C(=O)/C(=C2/SC(=S)N(CCS(=O)(=O)O)C2=O)c2ccccc21)Nc1cccc(C(F)(F)F)c1,active: 56.2 µM
6,CCCn1cnc2cc(NCc3ccccn3)ccc21,inactive
7,CC(=O)CCc1oc2ccc(C)cc2c1Cc1ccccc1,"inconclusive [inhibitor, partial curve]"
8,CCc1nc2c(OCc3cc(Cl)cc(Cl)c3)cccn2c1N(C)C(=O)c1ccc(C)cc1,"inconclusive [inhibitor, full curve]"
9,CCC(CC)C(=O)N1CC(=O)Nc2ccc(Br)cc2C1c1ccccc1 (stereo not drawn),"inconclusive [inhibitor, partial curve]"
10,COc1ccc(NC(=S)N/N=C/c2ccc(F)c(F)c2)cc1,"inconclusive [inhibitor, single point]"
11,Cc1ccc(S(=O)(=O)N2C[C@@H]3[C@H]4CC[C@H](C4)[C@@H]3[C@@H](C)[C@@H]2c2ccco2)cc1,"inconclusive [inhibitor, full curve]"
12,CCCCCCCCCCOC(=O)Cn1c(COc2cccc(C)c2)[n+](C)c2ccccc21,"inconclusive [inhibitor, partial curve]"
13,CCN(CC)CC(O)CN1C(=O)NC(C)(C)C1=O (stereo not drawn),inactive
14,COc1ccc(N2C(=O)CSC2c2ccc3c(c2)OCO3)c(OC)c1 (stereo not drawn),"inconclusive [inhibitor, partial curve]"
15,N=C1C(c2nc3ccccc3c(=O)[nH]2)=C(O)CN1CCO,inactive
16,CCc1nc2ccc(C(=O)N3CCN(c4ccccc4)CC3)cn2c1N(C)CCC(C)C,"inconclusive [inhibitor, partial curve]"
17,O=c1cc(N2CCCCC2)c(-c2ccccc2)nn1Cc1ccc(Cl)cc1,inactive
18,Cc1nc(SCc2ccccc2)c2ccsc2n1,"inconclusive [inhibitor, partial curve]"
19,Cc1cc(NC(=O)c2cc(-c3ccc(OC(C)C)cc3)nc3ccccc23)no1,"inconclusive [inhibitor, single point]"
20,Cc1ccc(NC(=S)NNC(=S)Nc2ccc(C)cc2C)cc1,inactive
21,CC(=O)N1N=C(c2ccccc2)CC1c1cn(C)c2ccccc12 (stereo not drawn),"inconclusive [inhibitor, partial curve]"
22,O=C(O)c1cc(O)c2c(c1)C(=O)c1cc(O)cc(O)c1C2=O,"inconclusive [inhibitor, partial curve]"
23,CCOc1ncccc1C(=O)OCc1c(F)cccc1Cl,"inconclusive [inhibitor, partial curve]"
